In all, about 81,000 sequences were measured (“one-hybrid fitness for binding NBS DNA”: median about -0.1, highest 2% from about 0.36 on). Some of the results follow.
B1: Caulobacter ParB omega fusion; a variant is named by its letters at X, in order, B8GW30 (parent)
chain: MESVVVGEPGMSEGRRGLGRGLSALLGEVDAAPAQAPGEQLGGSREAPIEILQRNPDQPRRTFREEDLEDLSNSIREKGVLQPILVRPSPDTAGEYQIVAGERAWRAAQRAGLKTVPIMVRELDDLAVLEIGIIENVQRADLNVLEEALSYKVLMEKFERTQENIAQTIGKSXSHVANXMRLLXLPDEVQSYLVSGELTAXHARAIAAAADPVALAKQIIEGGLSVRETEALARKAPNLSAGKSKGGRPPRVKDTDTQALESDLSSVLGLDVSIDHRGSTGTLTITYATLEQLDDLCNRLTRGI

Variants of: B1
Assay: one-hybrid fitness for binding NBS DNA (the Noc-binding site; scaled: cognate 1, non-cognate 0); higher = stronger binding
Settings: with NBS DNA site
Summary of the method: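 Caulobacter ParB libraries with four specificity codons randomised were screened by bacterial one-hybrid selection in the E. coli USO strain, using a HIS3 reporter whose site lies 19 bp from the promoter. Selection ran for 48 hours at 37°C on M9 lacking histidine, with 0.1 mM IPTG and 5 mM 3-AT. Plasmids were Illumina-sequenced before and after selection, three replicate libraries were pooled, and variants with under 10 reads were dropped. Fitness is the log change in each variant's read ratio to wild type, rescaled against the cognate and non-cognate sites.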

Variant | one-hybrid fitness for binding NBS DNA
DALC | ≤ 0.2
KAVS | ≤ 0.2
ARMP | ≤ 0.2
HLTF | ≤ 0.2
GNTC | ≤ 0.2
ARTN | ≤ 0.2
LWSW | ≤ 0.2
PLKD | ≤ 0.2
RKCA | 0.265
PVNA | ≤ 0.2
RPCM | ≤ 0.2
WFRM | ≤ 0.2
ICAC | ≤ 0.2
QCYP | ≤ 0.2
EGPS | ≤ 0.2
VDPY | ≤ 0.2
IPRT | ≤ 0.2
PYET | ≤ 0.2
KFVV | ≤ 0.2
DGAI | ≤ 0.2
WCRT | ≤ 0.2

Variant | one-hybrid fitness for binding NBS DNA
AYWG | ≤ 0.2
MWSL | ≤ 0.2
CQGS | ≤ 0.2
LLKA | ≤ 0.2
SLWM | ≤ 0.2
TPVD | ≤ 0.2
LTQV | ≤ 0.2
GLSL | ≤ 0.2
RCIP | ≤ 0.2
DKLQ | ≤ 0.2
NVCD | ≤ 0.2
VTGR | ≤ 0.2
QMRI | 0.339
LFDC | ≤ 0.2
SIGT | ≤ 0.2
RIKA | 0.327
PERV | ≤ 0.2
TVNT | ≤ 0.2
FGER | ≤ 0.2
TMGS | ≤ 0.2
NEQA | ≤ 0.2

Variant | one-hybrid fitness for binding NBS DNA
AGPR | ≤ 0.2
QSRC | 0.374
RPQT | ≤ 0.2
VMPM | ≤ 0.2
RFDP | ≤ 0.2
PTFA | ≤ 0.2
FIVD | ≤ 0.2
ARPC | ≤ 0.2
QRKI | 0.52
QLHY | ≤ 0.2
VPVI | ≤ 0.2
FCEG | ≤ 0.2
PFKS | ≤ 0.2
QRCW | 0.269
YAMW | ≤ 0.2
KYLM | ≤ 0.2
LLPI | ≤ 0.2
TDFK | ≤ 0.2
FYSR | ≤ 0.2
RIPN | ≤ 0.2
LKFG | ≤ 0.2

Variant | one-hybrid fitness for binding NBS DNA
VALT | ≤ 0.2
QKCY | ≤ 0.2
TKDR | ≤ 0.2
VNHA | ≤ 0.2
DCWL | ≤ 0.2
EHHT | ≤ 0.2
FVYR | ≤ 0.2
DYYC | ≤ 0.2
GIGV | ≤ 0.2
RGSA | ≤ 0.2
RGRY | ≤ 0.2
HVTG | ≤ 0.2
DHHG | ≤ 0.2
TIRV | ≤ 0.2
QCTV | ≤ 0.2
TTYM | ≤ 0.2
HRYP | ≤ 0.2
EGES | ≤ 0.2
YPDI | ≤ 0.2
VTMG | ≤ 0.2
YTNL | ≤ 0.2

Source: a collection of fitness landscapes (doi:10.1016/j.celrep.2020.107928)
